The supplement of paper PMC3334620
Over roughly 33,000 sequences, “E-score (-0.5 to 0.5)” has its median near -0.041; the highest 2% begin near 0.37. The list shows a part of the results.

target: T1, Ecm22 (UniProt Q05958); test: PBM E-score (8-mer binding enrichment) (E-score (-0.5 to 0.5)); higher = stronger / more preferred TF binding; most listed sequences are background and not binding sites; conditions: protein concentration: 200 nM; construct: GST-full length
T1 sequence: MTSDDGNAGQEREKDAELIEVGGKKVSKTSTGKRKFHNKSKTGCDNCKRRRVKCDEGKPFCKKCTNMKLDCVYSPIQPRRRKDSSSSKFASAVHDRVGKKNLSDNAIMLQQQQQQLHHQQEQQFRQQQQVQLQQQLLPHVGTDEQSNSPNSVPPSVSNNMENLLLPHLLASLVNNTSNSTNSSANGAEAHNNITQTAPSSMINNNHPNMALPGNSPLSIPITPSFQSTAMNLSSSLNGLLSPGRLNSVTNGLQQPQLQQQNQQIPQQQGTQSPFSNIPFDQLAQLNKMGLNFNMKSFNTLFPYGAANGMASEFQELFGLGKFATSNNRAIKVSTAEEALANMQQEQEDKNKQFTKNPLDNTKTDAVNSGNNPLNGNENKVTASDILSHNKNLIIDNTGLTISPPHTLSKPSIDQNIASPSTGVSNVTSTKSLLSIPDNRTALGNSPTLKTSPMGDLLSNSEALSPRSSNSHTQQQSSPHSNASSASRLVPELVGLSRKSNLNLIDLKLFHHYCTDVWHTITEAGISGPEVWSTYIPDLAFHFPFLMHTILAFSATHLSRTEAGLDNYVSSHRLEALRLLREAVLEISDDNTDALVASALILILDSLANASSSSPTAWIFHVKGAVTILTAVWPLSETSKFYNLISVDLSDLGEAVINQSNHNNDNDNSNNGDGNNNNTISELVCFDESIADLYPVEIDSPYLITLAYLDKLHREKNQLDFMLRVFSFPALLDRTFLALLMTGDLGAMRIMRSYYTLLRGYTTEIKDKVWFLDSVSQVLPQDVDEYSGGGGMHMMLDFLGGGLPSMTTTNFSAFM
Outline: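 Detection of bound protein used fluorescent anti-GST, with scans normalised by masliner. The proteins were GST-tagged yeast transcription factors applied at about 100-200 nM to universal all-10-mer Agilent arrays made double-stranded by primer extension. Each ungapped eight-base word, pooled with its reverse complement, was scored with an E-score from the Universal PBM Analysis Suite.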

Sequence	PBM E-score
AACGCGGT	0.11
ACTTTCCC	-0.207
CTTGTTTA	-0.00529
CCGTGATC	-0.0217
ACCTTGCA	0.00298
ACCAGCGG	-0.316
CCTCAAGA	-0.271
AGGTAACT	-0.122
CCCTTTCC	-0.176
ACCAACAA	0.0291
AAAGAGAA	-0.142
AGCCGGCC	-0.201
ACCTACTC	-0.125
CACGGTCA	-0.161
AAGTCAGA	-0.268
AAGCTTGA	-0.212
GAAATATC	0.211
AGTATGTC	-0.0116
GCCCAAAC	0.0298
AAAGTCTT	-0.127
TTGAAAAA	-0.0492
CCCCCAGA	-0.145

Sequence	PBM E-score
AGAGAAGA	-0.0414
ACGACGAA	0.365
ACTCTACT	-0.0259
ATTGCGTC	-0.223
CACCCAAC	-0.0777
CGTAATTC	0.293
AACTTATG	-0.0748
CGCCAGTC	0.014
ATAAGCTA	-0.0667
CTTAACCC	-0.0863
ACTTGCAG	-0.139
AACGTAAG	0.0805
CTTGCAGC	-0.147
GATTCTGA	0.101
ATCTTTAC	0.17
CAATACTG	-0.0536
GCAAGCTA	-0.145
ATTAGATC	-0.0252
CACCTACA	-0.239
AACTGACT	0.0236
GCGTACAC	0.252
ATCGGATG	0.127

Sequence	PBM E-score
ACTACAAA	-0.028
TTAGCTAA	-0.182
ACCACAAG	-0.255
CGGTCCGC	0.141
ATTGCGTG	0.0623
ACGATCCG	0.366
GGTCGAGA	-0.0974
ATGTCGAG	-0.0984
TAATCGTA	0.418
CCCAAAAA	-0.227
TCCTGAGA	-0.243
AGAGGATC	-0.0672
AAGTAATA	0.0988
AGTTCAAT	-0.152
CCAAGAAC	-0.00212
GCACACAC	-0.00107
GTCCACAA	-0.202
ACCTAATG	-0.232
CCGCCTAC	-0.0607
GAGAGCTA	0.0882
AACGACGA	0.444
ACCGTACA	0.371

Sequence	PBM E-score
GAAGATGA	-0.0687
GTACGCCA	0.145
ACTAAACG	0.457
CTGACTAC	-0.277
GGAGTATA	0.0364
AACGCGGC	0.189
CCGGACAA	-0.00597
GACCTCCA	-0.114
TCCGGCGA	-0.0052
GTGATCGA	0.0917
CGGTCTTC	0.176
GGAAAGCC	-0.0598
ATGAATGA	0.0155
CCCATGAG	-0.23
GTCCCTTA	-0.0612
TGGTGCAA	-0.143
ATTGGCCA	-0.118
CGATTCCG	0.0468
CTCGTAGA	0.376
AGCTTACA	-0.00967
